Results: PubChem BioAssay AID686978 (National Center for Advancing Translational Sciences (NCATS), 2013)
The campaign covered roughly 420,000 compounds. About 64,000 (15%) were called active. The inconclusive results got no clear call from the source; some entries with a clear call stand among them for comparison. Calls follow the shape of the dose curve; as a rule, active = well fitted inhibition curve with a large enough effect; inconclusive = small, poorly fitted or top-dose-only effect; inactive = flat fitted curve, though single readings scatter. No potency is given beside an inconclusive call; the fits are too rough.

Assay: qHTS for Inhibitors of human tyrosyl-DNA phosphodiesterase 1 (TDP1): qHTS in cells in absence of CPT; also: nearly all actives have a fitted effect of over 55% in size
Conditions: DT40 Tdp1-/- hTDP1 cells, no CPT, ATP luminescence, 48 h; series mostly up to 46.2 µM
How it was run: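 Camptothecin absent (DMSO only). Human TDP1-complemented DT40 knockout cells, 400 cells/well, 37 °C for minimum 48 hr; ATP measured via CellTiter-Glo, 30 min dark incubation, luminescence.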
Potency is read from the fitted curve at half-maximal effect; tags tell the direction and shape of the fitted curve.

Structure (SMILES)	Potency
Cc1ccc(CCNC(=O)CCN2N=C(c3ccc(C)cc3)CCC2=O)cc1	inconclusive [inhibitor, partial curve]
COc1ccccc1-c1ccc(SCc2ccc(F)cc2)nn1	inactive
CC1=C(C(=O)N(C)C)CC(CC(=O)NCc2cccc3ccccc23)C(=O)N1CCC1=CCCCC1 (stereo not given)	inconclusive [inhibitor, single point]
COC(=O)c1nn(-c2ccccc2)nc1-c1nn(-c2ccccc2)nc1C(=O)OC	active: 16.4 µM
Cc1ccc(S(=O)(=O)N(C)C)cc1NC(=O)c1ccccc1SCC(=O)N1CCCC1	inconclusive [inhibitor, single point]
Cc1ccsc1/C=N/NC(=O)c1sccc1C	inconclusive [inhibitor, partial curve]
COC(=O)[C@@]12C[C@@H](CC(=O)NCc3ccc(OC)c(OC)c3)C(=O)N(CCc3ccc(OC)c(OC)c3)C1=CCC(C)(C)C2	active: 14.6 µM
Cc1ccc(OCC(=O)Nc2ccc3c(c2)nc(CCN2CCN(C)CC2)n3C)cc1	inconclusive [inhibitor, single point]
c1ccc(CN=C(NCc2ccccc2)NCc2ccccc2)cc1	active: 2.91 µM
CC(C)(C)NC1=NCCNC(c2ccccc2)=C1	inconclusive [inhibitor, partial curve]
CCOC(=O)C=Nc1c(N)n(C)c(=O)n(C)c1=O	inactive
Cc1cc(C)n2nc(C(=O)OCC(=O)NCc3ccccc3)nc2n1	inactive
O=C(COC(=O)CSc1ccc(F)cc1)NNC(=O)c1ccc([N+](=O)[O-])cc1	inactive
COc1ccc(OC)c(NC(=O)C2(C)CCN2C(=O)C2(c3ccc(Cl)cc3)CCC2)c1 (stereo not given)	inconclusive [inhibitor, single point]
Cc1cccc(C)c1NC(=O)NC1(C(=O)N2CCOCC2)CCCCC1	inactive
Cc1cnc(C(=O)OC(C)C(=O)NCc2ccccc2)cn1 (stereo not given)	inactive
COc1cc(CN2CCC(C(=O)NC(c3ccc(F)cc3)c3ccc4ccccc4n3)CC2)cc(OC)c1 (stereo not given)	active: 2.91 µM
CC(C)CNC(=O)C(=O)Nc1cc2c3c(c1)C(C)C(=O)N3CCC2 (stereo not given)	inactive
COC(=O)c1ccc(Cn2cc(Cl)cn2)o1	inactive
CCCCCCCC(=O)NC(Nc1ccccc1OC)C(Cl)(Cl)Cl (stereo not given)	inconclusive [inhibitor, single point]
CCOC(=O)C1=CC[C@H]2c3c(c4ccccc4n3C)C(=O)C1N2C(=O)OC(C)(C)C	inconclusive [inhibitor, single point]
O=C(CSc1n[nH]c(Cc2ccccc2)n1)Nc1ccccc1Br	inconclusive [inhibitor, partial curve]
CC1CCc2sc(C(=O)N/N=C/C3CCCCC3)cc2C1 (stereo not given)	inactive
CN(Cc1ccccc1)C(=O)c1ccc(NC(=O)Cc2ccc([N+](=O)[O-])cc2)cc1	inconclusive [inhibitor, single point]
CC(C)(C)c1ccc(C(=O)NC(=O)COC(=O)c2ccco2)cc1	inactive

Structure (SMILES)	Potency
CN(C(=O)c1cccc(NC(=O)Cc2ccc(NC(=O)C3CCN(C(=O)c4ccccc4)CC3)cc2)c1)C1CCCC1	inconclusive [inhibitor, single point]
CCOc1ccc(S(=O)(=O)N2CCCC(C(=O)N3CCOCC3)C2)cc1Cl (stereo not given)	inconclusive [inhibitor, partial curve]
O=C(Nc1cccc(C(=O)N2CCCC2)c1)C1CCC1	inactive
Cc1cc(N2CCCC2=O)ccc1S(=O)(=O)N1CCOCC1	inconclusive [inhibitor, single point]
CN(Cc1ccccc1)C(=O)CNC(=O)C12CC3CC(CC(C3)C1)C2	inactive
O=C(CCc1nc2cccnc2n1Cc1cccs1)Nc1cccc(C(F)(F)F)c1	active: 10.3 µM
CCOc1ccc(OCC(=O)Nc2cccc(S(=O)(=O)NC3=NCCC3)c2)cc1	inconclusive [inhibitor, single point]
CCSc1cnn(-c2ccccc2)c(=O)c1Cl	inconclusive [inhibitor, single point]
CCCN(CCC)S(=O)(=O)c1ccc(Cl)c(OC)c1	active: 13 µM
CCCNC(=O)c1ccc(N2CCC3(CC2)CC(c2cccc(Br)c2)=NO3)c(NC(=O)c2ccccc2)c1	active: 23.1 µM
O=C(c1cccs1)N(Cc1cccnc1)c1nc2c(Cl)cccc2s1	inconclusive [inhibitor, single point]
NC(=O)c1ccccc1NC(=O)C1CCCN(c2ncnc3onc(-c4ccc(F)cc4)c23)C1 (stereo not given)	active: 14.6 µM
CCOc1ccc(-c2nc(C#N)c(NCc3ccco3)o2)cc1	inconclusive [inhibitor, single point]
CC(C)NC(=O)N(C)C[C@H]1Oc2cc(Br)ccc2S(=O)(=O)N([C@H](C)CO)C[C@H]1C	inactive
O=C(NN1CCN(Cc2ccccc2)CC1)c1ccc(Cl)cc1	inactive
CCc1ccccc1NC(=S)N(CCCN1CCOCC1)Cc1cccs1	inconclusive [inhibitor, single point]
Cc1ccc(NC(=O)CCc2nc3ccccc3[nH]2)cc1C	inactive
COc1ccccc1/C=C/C(=O)OCC(=O)NC1CCCCCC1	inactive
O=C(OCc1cc(=O)oc2cc(O)ccc12)c1cc(S(=O)(=O)N2CCOCC2)ccc1F	inactive
CCOC(=O)CCNC(=O)N1CCCC(CNS(=O)(=O)c2cccs2)C1 (stereo not given)	inactive
Cc1ccccc1Cn1c(=O)n(Cc2ccc3c(c2)OCO3)c(=O)c2oc3ccccc3c21	inactive
S=C(NC1CC2CCC1C2)N1CCN(c2cccc(Cl)c2)CC1 (stereo not given)	inconclusive [inhibitor, single point]
CCOC(=O)c1c(CN2CCNCC2)nc2ccc(Cl)cc2c1-c1ccccc1	active: 4.61 µM
Cc1ccc(OC(C)C(=O)Nc2cc(C)on2)cc1 (stereo not given)	inactive
COc1ccc(CC(=O)OCC(=O)Nc2cccnc2Cl)cc1OC	inactive
